Some of the results follow.
Assays:
Experiment in all cases: glycan array binding signal (z-score within array); higher = stronger binding
Settings in all cases: glycan notation: IUPAC condensed, linker removed
[1] = biological target: Neu5Ac(a2-3)Gal(b1-4)GlcNAc(b1-2)Man(a1-3)[Neu5Ac(a2-3)Gal(b1-4)GlcNAc(b1-2)Man(a1-6)]Man(b1-4)GlcNAc(b1-4)GlcNAc
Outline: (§1)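 The binding signal is a Z-score computed within each array and averaged over linkers. Arrays of the same protein sequence at different concentrations or buffers were also averaged together. Data originate from 3228 arrays in the Consortium for Functional Glycomics database, kept only where the protein sequence was available.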

[2] = biological target: Neu5Ac(a2-3)Gal(b1-4)GlcNAc(b1-3)Gal(b1-4)GlcNAc
Outline: as §1

[3] = biological target: Neu5Ac(a2-3)Gal(b1-4)GlcNAc(b1-3)Gal(b1-4)GlcNAc(b1-3)Gal(b1-4)GlcNAc
Outline: as §1

[4] = biological target: Neu5Ac(a2-3)Gal(b1-4)GlcNAc(b1-3)Gal(b1-4)[Fuc(a1-3)]GlcNAc
Outline: as §1

[5] = biological target: Neu5Ac(a2-3)Gal(b1-4)GlcNAc6S
Outline: as §1

[6] = biological target: Neu5Ac(a2-3)Gal(b1-4)[Fuc(a1-3)]GlcNAc
Outline: as §1

[7] = biological target: Neu5Ac(a2-3)Gal(b1-4)[Fuc(a1-3)]GlcNAc(b1-3)Gal
Outline: as §1

[8] = biological target: Neu5Ac(a2-3)Gal(b1-4)[Fuc(a1-3)]GlcNAc(b1-3)Gal(b1-4)GlcNAc
Outline: as §1

[9] = biological target: Neu5Ac(a2-3)Gal(b1-4)[Fuc(a1-3)]GlcNAc(b1-3)Gal(b1-4)[Fuc(a1-3)]GlcNAc(b1-3)Gal(b1-4)[Fuc(a1-3)]GlcNAc
Outline: as §1

[10] = biological target: Neu5Ac(a2-3)Gal(b1-4)[Fuc(a1-3)]GlcNAc6S
Outline: as §1

[11] = biological target: Neu5Ac(a2-3)Gal6S(b1-4)GlcNAc
Outline: as §1

[12] = biological target: Neu5Ac(a2-3)Gal6S(b1-4)[Fuc(a1-3)]GlcNAc
Outline: as §1

Neu5Ac(a2-3)GalNAc = biological target: Neu5Ac(a2-3)GalNAc
Outline: as §1

[13] = biological target: Neu5Ac(a2-3)GalNAc(b1-4)GlcNAc
Outline: as §1

[14] = biological target: Neu5Ac(a2-3)[GalNAc(b1-4)]Gal(b1-4)Glc
Outline: as §1

[15] = biological target: Neu5Ac(a2-3)[GalNAc(b1-4)]Gal(b1-4)GlcNAc
Outline: as §1

[16] = biological target: Neu5Ac(a2-3)[Neu5Ac(a2-6)]GalNAc
Outline: as §1

Neu5Ac(a2-6)Gal = biological target: Neu5Ac(a2-6)Gal
Outline: as §1

Neu5Ac(a2-6)Gal(b1-4)Glc = biological target: Neu5Ac(a2-6)Gal(b1-4)Glc
Outline: as §1

[17] = biological target: Neu5Ac(a2-6)Gal(b1-4)GlcNAc
Outline: as §1

[18] = biological target: Neu5Ac(a2-6)Gal(b1-4)GlcNAc(b1-3)Gal(b1-4)GlcNAc
Outline: as §1

[19] = biological target: Neu5Ac(a2-6)Gal(b1-4)GlcNAc(b1-3)Gal(b1-4)[Fuc(a1-3)]GlcNAc(b1-3)Gal(b1-4)[Fuc(a1-3)]GlcNAc
Outline: as §1

[20] = biological target: Neu5Ac(a2-6)Gal(b1-4)GlcNAc6S
Outline: as §1

Neu5Ac(a2-6)GalNAc = biological target: Neu5Ac(a2-6)GalNAc
Outline: as §1

[21] = biological target: Neu5Ac(a2-6)GalNAc(b1-4)GlcNAc
Outline: as §1

Neu5Ac(a2-8)Neu5Ac = biological target: Neu5Ac(a2-8)Neu5Ac
Outline: as §1

[22] = biological target: Neu5Ac(a2-8)Neu5Ac(a2-3)Gal(b1-4)Glc
Outline: as §1

[23] = biological target: Neu5Ac(a2-8)Neu5Ac(a2-3)[GalNAc(b1-4)]Gal(b1-4)Glc
Outline: as §1

[24] = biological target: Neu5Ac(a2-8)Neu5Ac(a2-8)Neu5Ac
Outline: as §1

[25] = biological target: Neu5Ac(a2-8)Neu5Ac(a2-8)Neu5Ac(a2-3)Gal(b1-4)Glc
Outline: as §1

[26] = biological target: Neu5Ac(a2-8)Neu5Ac(a2-8)Neu5Ac(a2-3)[GalNAc(b1-4)]Gal(b1-4)Glc
Outline: as §1

[27] = biological target: Neu5Ac(a2-8)Neu5Ac(a2-8)Neu5Ac(a2-8)Neu5Ac(a2-3)[GalNAc(b1-4)]Gal(b1-4)Glc
Outline: as §1

Neu5Ac(b1-6)GalNAc = biological target: Neu5Ac(b1-6)GalNAc
Outline: as §1

[28] = biological target: Neu5Ac(b2-6)Gal(b1-4)GlcNAc
Outline: as §1

[29] = biological target: Neu5Ac9Ac(a2-6)Gal(b1-4)GlcNAc
Outline: as §1

[30] = biological target: Neu5Gc(a2-3)Gal(b1-3)GlcNAc
Outline: as §1

[31] = biological target: Neu5Gc(a2-3)Gal(b1-3)[Fuc(a1-4)]GlcNAc
Outline: as §1

Neu5Gc(a2-3)Gal(b1-4)Glc = biological target: Neu5Gc(a2-3)Gal(b1-4)Glc
Outline: as §1

[32] = biological target: Neu5Gc(a2-3)Gal(b1-4)GlcNAc
Outline: as §1

[33] = biological target: Neu5Gc(a2-3)Gal(b1-4)[Fuc(a1-3)]GlcNAc
Outline: as §1

[34] = biological target: Neu5Gc(a2-6)Gal(b1-4)GlcNAc
Outline: as §1

Neu5Gc(a2-6)GalNAc = biological target: Neu5Gc(a2-6)GalNAc
Outline: as §1

B1: MPA (Maclura pomifera) (protein)
chain: GVTFDDGAYTGIREINFEYNSETAIGGLRVTYDLNGMPFVAEDHKSFITGFKPVKISLEFPSEYIVEVSGYVGKVEGYTVIRSLTFKTNKQTYGPYGVTNGTPFSLPIENGLIVGFKGSIGYWLDYFSIYLSLNGPNGKSQSIIVGPWGDRVTN
- glycan array binding signal (z-score) [1]: -0.245
- glycan array binding signal (z-score) [2]: -0.247
- glycan array binding signal (z-score) [3]: -0.25
- glycan array binding signal (z-score) [4]: -0.246
- glycan array binding signal (z-score) [5]: -0.248
- glycan array binding signal (z-score) [6]: -0.217
- glycan array binding signal (z-score) [7]: -0.217
- glycan array binding signal (z-score) [8]: -0.219
- glycan array binding signal (z-score) [9]: -0.215
- glycan array binding signal (z-score) [10]: -0.193
- glycan array binding signal (z-score) [11]: -0.166
- glycan array binding signal (z-score) [12]: -0.2
- glycan array binding signal (z-score) (Neu5Ac(a2-3)GalNAc): 0.805
- glycan array binding signal (z-score) [13]: -0.241
- glycan array binding signal (z-score) [14]: -0.246
- glycan array binding signal (z-score) [15]: -0.247
- glycan array binding signal (z-score) [16]: -0.248
- glycan array binding signal (z-score) (Neu5Ac(a2-6)Gal): -0.245
- glycan array binding signal (z-score) (Neu5Ac(a2-6)Gal(b1-4)Glc): -0.239
- glycan array binding signal (z-score) [17]: -0.245
- glycan array binding signal (z-score) [18]: -0.246
- glycan array binding signal (z-score) [19]: -0.231
- glycan array binding signal (z-score) [20]: -0.245
- glycan array binding signal (z-score) (Neu5Ac(a2-6)GalNAc): -0.243
- glycan array binding signal (z-score) [21]: -0.243
- glycan array binding signal (z-score) (Neu5Ac(a2-8)Neu5Ac): -0.237
- glycan array binding signal (z-score) [22]: -0.234
- glycan array binding signal (z-score) [23]: -0.249
- glycan array binding signal (z-score) [24]: -0.244
- glycan array binding signal (z-score) [25]: -0.244
- glycan array binding signal (z-score) [26]: -0.251
- glycan array binding signal (z-score) [27]: -0.249
- glycan array binding signal (z-score) (Neu5Ac(b1-6)GalNAc): -0.245
- glycan array binding signal (z-score) [28]: -0.247
- glycan array binding signal (z-score) [29]: -0.233
- glycan array binding signal (z-score) [30]: -0.241
- glycan array binding signal (z-score) [31]: -0.217
- glycan array binding signal (z-score) (Neu5Gc(a2-3)Gal(b1-4)Glc): -0.245
- glycan array binding signal (z-score) [32]: -0.245
- glycan array binding signal (z-score) [33]: -0.222
- glycan array binding signal (z-score) [34]: -0.252
- glycan array binding signal (z-score) (Neu5Gc(a2-6)GalNAc): -0.245
